The supplement of paper PMC12217912
This is one part of the list. Sequences were assembled here from the parent chain. Inactive controls read about 0.05.

B1: TEV protease; numbered along this chain (parent)
chain: MGESLFKGPRDYNPISSSICHLTNESDGHTTSLYGIGFGPFIITNKHLFRRNNGTLVVQSLHGVFKVKDTTTLQQHLVDGRDMIIIRMPKDFPPFPQKLKFREPQREERICLVTTNFQTKSMSSMVSDTSCTFPSGDGIFWKHWIQTKDGQCGSPLVSTRDGFIVGIHSASNFTNTNNYFTSVPKNFMELLTNQEAQQWVSGWRLNADSVLWGGHKVFMVKPEEPFQPVKEATQL

Variants of: B1
Test: raw area under fraction-flipped curve 0-4 h after induction (AUC4h, not background-subtracted), DNA-recorder readout of cleavage of the substrate (dimensionless); higher = more cleavage of the substrate by the protease variant
Settings: temperature: 34 °C; time window: 0-4 h after rhamnose induction
Procedure: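 In vivo DNA recorder in E. coli TOP10(DE3) ΔrhaA at 34 °C. Each TEVp single-site mutant (parent TEVp 0) is paired with a single-site variant of the 7-mer TEVs (canonical ENLYFQ|S). The substrate sits between flexible linkers in a Bxb1-sfGFP-TEVs-SsrA fusion, so cleavage stabilises Bxb1 and speeds flipping of a recombination array, read by NGS. The value is the raw area under the fraction-flipped curve over 0-4 h after rhamnose induction (AUC4h), with ≥20 reads per time point. It is not background-subtracted; inactive controls average about 0.047.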
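Also: Bxb1 expression induced with 0.2% (w/v) L-rhamnose at OD600 near 0.5, cultures sampled hourly, flipped fraction per protease–substrate barcode pair counted by paired-end Illumina sequencing.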

| Variant | area with substrate ENLFFQS | area with substrate ENLGFQS | area with substrate ENLHFQS | area with substrate ENLNFQS | area with substrate ENLRFQS | area with substrate ENLVFQS | area with substrate ENLWFQS | area with substrate ENLDFQS | area with substrate ENLEFQS | area with substrate ENLIFQS | area with substrate ENLMFQS | area with substrate ENLPFQS | area with substrate ENLQFQS | area with substrate ENLSFQS | area with substrate ENLKFQS | area with substrate ENLLFQS | area with substrate ENLTFQS | area with substrate ENLCFQS |
| --- | --- | --- | --- | --- | --- | --- | --- | --- | --- | --- | --- | --- | --- | --- | --- | --- | --- | --- |
| S127K | 0.0327 | 0.0408 | 0.0754 | 0.0553 | 0.0739 | 0.133 | 0.0695 |  |  |  |  |  |  |  |  |  |  |  |
| V157S | 0.0626 | 0.0784 | 0.0367 | 0.0561 | 0.0666 |  | 0.0492 | 0.0584 | 0.0626 | 0.0697 | 0.0605 | 0.0523 | 0.0569 | 0.0433 |  |  |  |  |
| G162P | 0.0458 | 0.0551 | 0.0524 | 0.0551 | 0.0529 |  | 0.0427 | 0.0541 | 0.0417 |  | 0.0742 | 0.0586 |  | 0.0401 | 0.0783 | 0.0507 |  |  |
| L61H | 0.102 |  | 0.0682 | 0.0795 |  | 0.0966 |  | 0.0593 |  |  | 0.0765 | 0.0653 | 0.0599 | 0.0778 | 0.0734 |  | 0.0746 |  |
| M188P |  |  | 0.0836 | 0.0826 |  |  | 0.061 | 0.0657 | 0.0642 | 0.0884 |  | 0.0582 |  | 0.0708 | 0.0784 |  | 0.0776 | 0.065 |
| R10M | 0.0891 |  | 0.0751 | 0.0483 | 0.0669 |  | 0.057 | 0.0578 | 0.0708 | 0.0808 | 0.0745 |  |  | 0.0792 | 0.0729 |  |  |  |
| N177L | 0.0865 | 0.0505 | 0.0666 | 0.0619 |  | 0.0941 |  | 0.0612 | 0.072 | 0.0972 | 0.0294 | 0.0717 | 0.0665 | 0.0526 | 0.0836 |  | 0.0727 | 0.0633 |
| N177S | 0.0671 | 0.0622 | 0.0476 | 0.0456 | 0.0536 |  | 0.0476 | 0.0552 | 0.052 | 0.0683 |  | 0.0551 | 0.049 | 0.0562 | 0.0657 | 0.0607 |  | 0.0636 |
| L22E | 0.0467 |  | 0.0455 | 0.0488 | 0.0442 | 0.05 | 0.0405 | 0.0471 | 0.0445 | 0.0506 |  | 0.0362 | 0.0561 | 0.0438 | 0.047 | 0.0593 | 0.0286 |  |
| H47C | 0.0841 |  | 0.0584 | 0.0663 | 0.061 | 0.0471 |  | 0.0584 | 0.0603 |  | 0.0628 | 0.0538 | 0.0588 | 0.075 |  |  |  |  |
| Q197D | 0.0931 | 0.0647 | 0.0643 | 0.0714 |  |  |  | 0.0577 |  | 0.0703 |  | 0.0692 | 0.0571 | 0.0646 | 0.0701 | 0.0723 |  |  |
| Q151M | 0.0757 |  | 0.0751 | 0.0483 | 0.0252 | 0.0886 | 0.051 |  | 0.0503 |  |  | 0.0637 | 0.0683 | 0.0791 | 0.0485 | 0.0811 |  |  |
| K148Q | 0.0714 |  |  | 0.0608 | 0.0747 | 0.0876 |  | 0.0609 | 0.0768 | 0.0909 | 0.0757 | 0.103 |  | 0.0712 | 0.0838 | 0.0767 |  |  |
| K148R |  |  |  | 0.051 |  |  |  | 0.0582 |  |  | 0.0719 |  |  | 0.0656 | 0.089 |  |  |  |
